# In PubChem BioAssay AID504832 (National Center for Advancing Translational Sciences (NCATS), 2011):
# Hit rate of the full screen: of about 310,000 compounds, about 18,000 (5.8%) were called active. Inconclusive results, whose numbers are uncertain, are shown with a selection of clear calls. The call rests on the fitted dose curve; in most records, active means well fitted inhibition curve with a large enough effect; inconclusive means small, poorly fitted or top-dose-only effect, or another doubt; inactive means no such curve, though single readings can be large or run the other way. Potencies of inconclusive entries are left out as doubtful fits.
# Test: Primary qHTS for delayed death inhibitors of the malarial parasite plastid, 48 hour incubation
# Settings: P. falciparum luciferase growth in erythrocytes; series mostly up to 28.7 µM; activity change, negative = inhibition: at the top concentration
# How it was run: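 Luminescence readout; reporter = integrated firefly luciferase in P. falciparum. RBC culture at 2% hematocrit, 0.1% parasitemia final, 37 C/5% CO2; decreased signal taken as growth inhibition.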
# On the % scale 0 is the no-effect control and ±100 the full control effect; potency means the concentration at half of the fitted maximal effect; tags describe the fitted curve by direction and shape.
Structure (SMILES),Potency,"activity change, negative = inhibition"
O=C(CN1CCCCC1)Nc1ccc(NC(=O)c2ccc(Cl)cc2)cc1Cl,"inconclusive [inhibitor, partial curve, poor fit]",–
Cc1ccc(-n2c3c(c(=O)[nH]c2=O)C(NS(=O)(=O)c2ccc(Cl)cc2)(C(F)(F)F)C(=O)N3)cc1 (stereo not drawn),"inconclusive [inhibitor, partial curve]",–
O=C(CNc1cccc(Cl)c1)c1ccc(Cl)cc1,"inconclusive [inhibitor, single point]",–
CN(C(=O)CCCN1C(=O)c2ccccc2C1=O)C1CCCCC1,"inconclusive [inhibitor, single point]",–
COC(=O)c1cc(C(=O)Nc2nc3ccccc3[nH]2)cc([N+](=O)[O-])c1,"inconclusive [inhibitor, single point]",–
CC(=O)Nc1sc2c(c1C#N)CCCCC2,"inconclusive [inhibitor, single point]",–
Cc1ccc(C(=O)C[n+]2ccc(Cc3ccccc3)cc2)cc1,"inconclusive [inhibitor, single point]",–
CCCCCNc1nc(-c2ccccc2)cs1,–,inactive: -5.73%
COC(=O)C1=C(c2ccc(Cl)c(C(F)(F)F)c2)C[C@@H]2CC[C@H]1N2C(=O)NCCOc1ccccc1,active: 11.7 µM,–
CC1CCCN(C(=O)C2CC(=O)N(c3ccc(Cl)cc3)C2)C1 (stereo not drawn),–,inactive: 8.91%
COC(=O)c1sc(NC(=O)C2c3ccccc3Oc3ccccc32)c(C(=O)OC)c1C,active: 1.65 µM,–
Cc1nn(CC(=O)NCC(C)c2ccccc2)c(=O)c2cc(-c3ccccc3)nn12 (stereo not drawn),–,inactive: 5.54%
COc1ccc(C)cc1NC(=O)C1CCCN(S(=O)(=O)c2ccc3c(c2)CCCN3C(C)=O)C1 (stereo not drawn),"inconclusive [inhibitor, partial curve, poor fit]",–
CO[C@H]1C[C@@H]2CC[C@@H](C)[C@@](O)(O2)C(=O)C(=O)N2CCCC[C@H]2C(=O)O[C@H]([C@H](C)C[C@@H]2CC[C@@H](O)[C@H](OC)C2)CC(=O)[C@H](C)/C=C(\C)[C@@H](O)[C@@H](OC)C(=O)[C@H](C)C[C@H](C)/C=C/C=C/C=C/1C,active: 1.51 µM,–
Cc1cccc(/C=N/NC(=O)c2ccc(Br)cc2)c1,–,inactive: 71%
Cc1nn2c(N3CCN(C)CC3)cc(C(C)(C)C)nc2c1-c1ccccc1,"inconclusive [inhibitor, partial curve, poor fit]",–
CC(O)CNc1nc2c(c(=O)n(Cc3ccc(Cl)c(Cl)c3)c(=O)n2C)n1C (stereo not drawn),"inconclusive [inhibitor, partial curve]",–
O=C1CCCC(O)=C1C(C#Cc1ccccc1)C1=C(O)CCCC1=O,–,inactive: 4%
CCC(=O)N1CCc2cc(S(=O)(=O)NC(Cc3ccccc3)C(=O)NC3CCCCC3)ccc21 (stereo not drawn),"inconclusive [inhibitor, single point]",–
CCc1cccc(CC)c1NC(=S)NCc1ccc2[nH]c(C)cc2c1,active: 4.65 µM,–
O=S(=O)(c1ccc(Br)cc1)N1CCCC1c1nc2ccccc2s1 (stereo not drawn),active: 10.4 µM,–
COCCNC(=O)CSc1nc2cc3c(cc2c(=O)n1CCCC(=O)NCCc1ccc(OC)c(OC)c1)OCO3,"inconclusive [inhibitor, full curve, poor fit]",–
Cc1ccc2[nH]c(=O)c(CN(Cc3cccs3)C(=S)NCc3ccco3)cc2c1,"inconclusive [inhibitor, partial curve]",–

Structure (SMILES),Potency,"activity change, negative = inhibition"
O=C(COc1ccccc1[N+](=O)[O-])N(Cc1ccco1)C1CCS(=O)(=O)C1 (stereo not drawn),–,inactive: 11.7%
Cc1ccc(S(=O)(=O)N2CCC(C(=O)Nc3nnc(-c4ccco4)s3)CC2)cc1,"inconclusive [inhibitor, partial curve]",–
COCCCn1c(=NC(=O)c2ccncc2)c(C#N)cc2c(=O)n3cccc(C)c3nc21,active: 2.94 µM,–
COc1cc(/C=N/NC(=O)c2cccnc2)ccc1OC(=O)c1cccc(Br)c1,"inconclusive [inhibitor, single point]",–
CC(C)CC1Nc2ncnc(N3CCN(c4ccccn4)CC3)c2N(Cc2ccc(Br)cc2)C1=O (stereo not drawn),active: 7.38 µM,–
O=C(CSc1nncn1-c1ccccc1)c1c[nH]c2ccccc12,"inconclusive [inhibitor, single point]",–
CCCCC1S/C(=N/N=C/c2cccs2)NC1=O (stereo not drawn),"inconclusive [inhibitor, full curve, poor fit]",–
CCc1c(O)nc(SCC(=O)Nc2ccc(OC)cc2)n(C2CCCCC2)c1=O,"inconclusive [inhibitor, single point]",–
C/C(=N\NC(=S)NCCc1ccccc1)c1ccc(C)cc1,–,inactive: -18.3%
CC1N(C)c2cc(NC(=O)c3cccs3)c(P(=O)(Nc3ccc([N+](=O)[O-])cc3)N3CCOCC3)cc2C1(C)C (stereo not drawn),active: 13.1 µM,–
CCc1noc(C)c1C(=O)Nc1nc(-c2ccc(NC(C)=O)cc2)cs1,"inconclusive [inhibitor, partial curve, poor fit]",–
CCN(CC(=O)Nc1c(F)cccc1F)C(=O)CCNS(=O)(=O)c1ccccc1C(F)(F)F,"inconclusive [inhibitor, single point]",–
O=C(Nc1cc([N+](=O)[O-])ccc1F)C1CC1,–,inactive: -3.43%
COc1ccc(S(=O)(=O)NCCOc2ccccc2)cc1OC,"inconclusive [inhibitor, single point]",–
COc1ccc(OC)c(NC(=O)C2CCCN2C(=O)OCc2ccccc2)c1 (stereo not drawn),active: 13.1 µM,–
CC(=O)c1cccc(NC(=S)NC(=O)C(C)C)c1,–,inactive: 3.18%
O=C(CNC(c1ccccc1)c1ccccc1)NCc1ccccc1Cl,"inconclusive [inhibitor, single point]",–
O=C1CSC(c2ccccn2)N1c1ccc(Br)cc1 (stereo not drawn),"inconclusive [inhibitor, single point]",–
CSc1nc(-c2ccccc2)nc2c1COC(C)(C)C2,"inconclusive [inhibitor, single point]",–
O=C(NCc1ccco1)c1ccc2c(=O)n(Cc3ccco3)c(SCC(=O)N3CCCC3)nc2c1,"inconclusive [inhibitor, single point]",–
CC(C)COC(=O)n1ccc(C(=O)N2CCCCC2)n1,"inconclusive [inhibitor, single point]",–
Cc1ccc(C)c(OCCC(=O)N2CCN(S(=O)(=O)c3cc(F)ccc3F)CC2)c1,"inconclusive [inhibitor, partial curve, poor fit]",–
CCCn1c(/C=C/c2ccccc2)nc2ccccc21,–,inactive: -26.3%

Structure (SMILES),Potency,"activity change, negative = inhibition"
O=C(N/N=C/c1ccc(Sc2nc3ccccc3s2)c([N+](=O)[O-])c1)c1ccccn1,"inconclusive [inhibitor, partial curve, poor fit]",–
Cc1cc(C(=O)N2CCc3c([nH]c4ccccc34)C2c2cccc(Cl)c2)nn1C (stereo not drawn),"inconclusive [inhibitor, partial curve, poor fit]",–
CCOC(=O)c1c(-c2cccs2)csc1NC(=O)C(C)(C)C,active: 13.1 µM,–
CCOc1ccc(N(C)S(=O)(=O)c2ccc(-c3cc(C)no3)s2)cc1,"inconclusive [inhibitor, partial curve, poor fit]",–
COc1ccc(Cn2c(=O)[nH]c3cc(C(=O)N4CCN(Cc5ccccc5)CC4)ccc3c2=O)cc1,"inconclusive [inhibitor, single point]",–
COc1cccc(OC)c1C(=O)NC(=S)Nc1ccc(N2CCOCC2)c(Cl)c1,active: 14.7 µM,–
Cc1ccc(N(CC(O)Cn2nc(C)cc2C)S(=O)(=O)c2ccc3ccccc3c2)cc1 (stereo not drawn),"inconclusive [inhibitor, partial curve]",–
O=c1c(-c2ccc(F)cc2)coc2cc(O)ccc12,–,inactive: 195%
Cc1c(C(=O)N2CCOCC2)sc2ncnc(N3CCc4ccccc4C3)c12,–,inactive: -21%
CC(C)N1CCc2c(sc(NC(=O)c3ccc(S(=O)(=O)N4CCCCC4C)cc3)c2C(N)=O)C1 (stereo not drawn),"inconclusive [inhibitor, single point]",–
Cc1ccc(O)c(NC(=O)CCC2CCCCC2)c1,"inconclusive [inhibitor, partial curve, poor fit]",–
CCSc1nc2n(n1)C(c1cccc(F)c1)C1=C(CCCC1=O)N2 (stereo not drawn),"inconclusive [inhibitor, partial curve, poor fit]",–
CCCCN(C)C(=O)c1sc2ncn(CC)c(=O)c2c1C,–,inactive: 6.64%
CCOC(=O)c1cc2sccc2n1CC(=O)N1CCCC1,–,inactive: -4.42%
O=C1C2CC=CCC2C(=O)N1c1n[nH]c(-c2ccccc2)n1 (stereo not drawn),–,inactive: 74.5%
CCCC(=O)Nc1ccccc1-c1nnc(SCC)[nH]c1=O,–,inactive: -8.75%
CCOc1ccccc1N1CCN(C(=S)Nc2ccc(S(=O)(=O)Nc3ncccn3)cc2)CC1,–,inactive: 6.52%
COc1ccc(S(=O)(=O)N(CC(=O)NCC2CCCO2)C2CCCCC2)cc1OC (stereo not drawn),–,inactive: 11.2%
CCCCn1c(NCc2ccccn2)nc2ccccc21,"inconclusive [inhibitor, single point]",–
Cc1ccc(S(=O)(=O)c2nnn3c2nc(NC2CCN(Cc4ccccc4)CC2)c2ccccc23)cc1C,active: 2.94 µM,–
Clc1ccc(/C=C\c2nccc3c2[nH]c2ccccc23)cc1,active: 4.65 µM,–
CC(C)c1ccc(N(C(=O)C(F)(F)F)C(C(=O)NC2CCCCC2)c2ccncc2)cc1 (stereo not drawn),"inconclusive [inhibitor, single point]",–
